According to the supplement of paper PMC12217912:
Some of the results follow. The full chains were built here from the parent and the listed change. Inactive controls read about 0.05.

B1: TEV protease; numbered along this chain (parent)
chain: MGESLFKGPRDYNPISSSICHLTNESDGHTTSLYGIGFGPFIITNKHLFRRNNGTLVVQSLHGVFKVKDTTTLQQHLVDGRDMIIIRMPKDFPPFPQKLKFREPQREERICLVTTNFQTKSMSSMVSDTSCTFPSGDGIFWKHWIQTKDGQCGSPLVSTRDGFIVGIHSASNFTNTNNYFTSVPKNFMELLTNQEAQQWVSGWRLNADSVLWGGHKVFMVKPEEPFQPVKEATQL

Variants of: B1
Experiment: raw area under fraction-flipped curve 0-4 h after induction (AUC4h, not background-subtracted), DNA-recorder readout of cleavage of the substrate (dimensionless); higher = more cleavage of the substrate by the protease variant
Conditions: temperature: 34 °C; time window: 0-4 h after rhamnose induction
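Further: Bxb1 expression induced with 0.2% (w/v) L-rhamnose at OD600 near 0.5, cultures sampled hourly, flipped fraction per protease–substrate barcode pair counted by paired-end Illumina sequencing.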

Variant | area with substrate EHLYFQS | area with substrate EILYFQS | area with substrate ELLYFQS | area with substrate EPLYFQS | area with substrate EQLYFQS | area with substrate ESLYFQS | area with substrate EVLYFQS | area with substrate ERLYFQS | area with substrate EKLYFQS | area with substrate ETLYFQS
G214W | 0.0696 | 0.0681 | 0.0763 | 0.102 | 0.0664 | 0.0284 | 0.1 |  |  | 
G214F |  |  |  |  | 0.089 |  | 0.0915 |  |  | 
Q74P |  |  |  | 0.121 | 0.11 |  |  | 0.1 |  | 
N206P |  |  | 0.106 |  |  | 0.105 |  |  |  | 
N206L |  |  |  |  |  | 0.117 |  |  |  | 
N178S |  |  |  | 0.113 | 0.114 | 0.123 | 0.132 |  | 0.0921 | 0.117
N178Y |  | 0.161 |  | 0.176 | 0.207 |  | 0.157 |  |  | 0.172
N178Q |  | 0.126 | 0.137 | 0.168 |  |  |  | 0.131 |  | 
S201Q |  | 0.106 |  |  |  |  |  | 0.111 | 0.125 | 0.109
P228W |  | 0.0743 | 0.091 |  | 0.113 |  | 0.103 |  | 0.114 | 
H215S |  |  |  |  |  |  |  |  |  | 0.0596
F101I |  | 0.0655 |  |  | 0.0744 | 0.0751 | 0.0669 | 0.0753 | 0.0842 | 
F163N |  |  |  |  |  | 0.088 | 0.0656 | 0.0722 |  | 0.11
F163S |  | 0.111 |  |  |  |  |  |  |  | 
G138F | 0.11 |  |  | 0.127 |  | 0.141 |  | 0.102 | 0.0618 | 
G138L |  | 0.105 |  | 0.109 |  |  | 0.0953 |  |  | 
G138A |  |  |  |  |  | 0.1 |  |  |  | 
G138M |  | 0.0835 | 0.0079 |  | 0.114 | 0.0811 |  |  |  | 0.0791
C131W |  |  | 0.143 |  |  |  |  | 0.0996 |  | 
C131H |  | 0.157 | 0.154 |  |  |  |  | 0.0579 |  | 
C131I | 0.123 |  |  |  | 0.118 | 0.0997 |  |  | 0.15 | 
C131F |  |  |  |  | 0.234 |  | 0.147 |  |  | 
C131Q |  |  |  |  |  |  |  | 0.112 |  | 
C131E |  |  | 0.08 |  |  | 0.108 |  |  |  | 
W199Q |  |  |  |  |  |  | 0.0648 |  |  | 
D79E |  |  | 0.0904 |  |  | 0.101 | 0.0864 |  | 0.114 | 
G166E |  | 0.0449 | 0.0614 |  | 0.04 | 0.0704 | 0.0427 |  |  | 
G166K |  | 0.096 | 0.0544 | 0.0592 |  |  | 0.0555 |  |  | 
S158E | 0.0962 |  | 0.0766 |  |  |  | 0.0844 | 0.104 |  | 
S158L |  |  | 0.0364 |  |  |  |  | 0.0549 |  | 

Same assay, conditions: temperature: 34 °C; time window: 0-4 h after rhamnose induction

Variant | area with substrate EFLYFQS | area with substrate EWLYFQS | area with substrate EYLYFQS | area with substrate EELYFQS | area with substrate EGLYFQS | area with substrate EMLYFQS
N178Q | 0.153 | 0.117 |  |  |  | 
S201Q |  | 0.0799 | 0.0968 |  |  | 
P228W |  |  | 0.0877 | 0.053 |  | 
F101I | 0.0806 |  |  |  | 0.0724 | 
F163N |  | 0.0825 |  |  |  | 
G138L | 0.111 |  |  | 0.0814 |  | 
G138T |  | 0.0928 |  |  |  | 
G138M |  |  |  |  |  | 0.0634
C131Q |  | 0.0838 |  |  |  | 
W199Q |  | 0.0683 |  |  | 0.0821 | 
D79E |  |  |  |  |  | 0.104
G166E | 0.0538 |  |  |  |  | 
S158L |  |  |  |  |  | 0.046
